# In ChEMBL document CHEMBL1157539, “Thousands of chemical starting points for antimalarial lead identification” (Nature, 2010):
# Over roughly 13,000 compounds, “IFI” has its median near 4; the highest 2% begin near 17. The list shows a part of the results.
# Assay: GSK_TCMDC: Inhibition Frequency Index (IFI). The number of non-kinase HTS assays where a compound showed > 50 % inhibition, expressed as a percentage of the number of such assays in which the compound was tested (-0 is zero)
# Format: functional
row,SMILES,IFI [%]
1,CSc1cccc(NC(=O)Nc2ccc(I)c(OCCN(C)C)c2)c1,3.79
2,CC(Sc1nc(-c2ccccc2)c(-c2ccccc2)o1)C(=O)NC1CC1 (configuration not stated),3.28
3,CC(C)(C)c1ccc(-c2cc(C(=O)N[C@@H](CO)C(=O)O)on2)cc1.CC(C)(C)c1ccc(-c2nocc2C(=O)N[C@@H](CO)C(=O)O)cc1,-0
4,CCCCCCN(C(=O)OCc1ccccc1)C1CCN(C(=O)OC(C)(C)C)CC1C(=O)OCC (configuration not stated),2.99
5,CCCCCN1CCC(NC(=O)c2ccc(C(=O)Nc3ccc(C(C)C)cc3)cc2)C1 (configuration not stated),10.9
6,CCOc1ccc(C(=O)Nc2cc(Br)c3c(c2)CNCC3)cc1Br,7.09
7,COC(=O)c1cccc(CNCc2ccc(-c3cccc(-c4nc5cccc(C)c5[nH]4)c3)cc2)c1,5.71
8,CC1(C)N=C(N)N=C(N)N1O,-0
9,CCCCC(=O)Nc1nonc1-c1ccc(OCC)c(OCC)c1,-0
10,CC(C)(C)c1ccc(CN2CCC(CNC(=O)c3cc(-c4cccc(Cl)c4)cs3)C2)cc1 (configuration not stated),12.2
11,CC(=O)Nc1nc(C(=O)Nc2cccc(-c3cccc(-c4nc5ccccc5[nH]4)c3)c2)cs1,3.48
12,Cc1ccc2[nH]c(-c3ccc(C=CC(=O)NC4CCN(Cc5ccccc5)CC4)cc3)nc2c1,1.52
13,CCCNCc1ccc(-c2ccc(CN(Cc3cnc(C)cn3)C(=O)c3nn(-c4ccccc4)nc3C)cc2)nc1,3.03
14,CS(=O)(=O)CCNCc1cc(-c2cc3ncnc(Nc4ccc(OCc5cccc(F)c5)c(Cl)c4)c3s2)cs1,2.96
15,NC1CCCN(Cc2cccc(-c3ccc(-c4nc5ccccc5[nH]4)cc3)c2)C1 (configuration not stated),2.82
16,N#CC(c1ccc(Cl)cc1)c1ccc2c(C(F)(F)F)cc(C(F)(F)F)nc2n1 (configuration not stated),5.84
17,COc1ccc(CNCc2cccc(-c3cccc(-c4nc5cc(C(F)(F)F)ccc5[nH]4)c3)c2)cc1,10.5
18,CC(O)C1CCCCN1C(=O)c1cccc(-c2ccc(-c3nc4cc(F)ccc4[nH]3)cc2)c1 (configuration not stated),8.57
19,COc1cccc2c(O)c(CNC3CCCCC3)ccc12,7.52
20,Cc1cc(Nc2ccncc2)n2nc(C)c(-c3ccccc3Cl)c2n1,2.04
21,COc1ccc(CN(C)CCCSc2ccc(NC(=O)c3cccc4c(=O)cc(-c5ccccc5)[nH]c34)cc2)cc1OC,4.41
22,COc1ccc(/C=C/C(=O)NCCCCCN2CCC(c3c[nH]c4ccccc34)CC2)cc1O,3.57
23,Cc1ccc(CNC(=O)[C@H](CCCN)Nc2cc(C)nc(Nc3ccccc3)n2)cc1,7.5

row,SMILES,IFI [%]
1,O=C(Nc1ccc(Cl)c(Cl)c1)N[C@H]1CCN(CCCCCNC(=O)C2CC2c2ccc(Cl)c(Cl)c2)C1 (some centres not stated),16.2
2,COc1ccc(CCn2c(=N)c(C(=O)NC3CCCC3)cc3c(=O)n4ccccc4nc32)cc1,2.56
3,COc1ccc2ncc(F)c([C@H](O)CN3CCC(NCc4ccc5c(c4)NC(=O)CO5)CC3)c2c1,2.24
4,COc1cc(C(=O)N2CCN(C(C)C)CC2)ccc1CN(C)CCCN1CCN(c2cccc(Cl)c2Cl)CC1,12.1
5,O=C(NCC(c1ccc(C(F)(F)F)cc1)N1CCCC1)c1cc(-c2ccncc2)c(-c2cccc(O)c2)o1 (configuration not stated),3.03
6,N#Cc1ccc(C(=O)Nc2ccc(Cl)c(N3CCN(CCc4ccccc4)CC3)c2)cc1,1.28
7,CCCCNc1nc(NCCCC)c2c(C)c(Cc3ccccc3)c(NCCCC)nc2n1,16.1
8,N=C(N)NCCCN(Cc1ccccc1)c1ccc(Cl)cc1,1.48
9,COc1ccc2nc(-c3ccc(C(=O)NCCCN4CCN(c5cc(Cl)ccc5OC)CC4)cc3)[nH]c2c1,3.73
10,CCCN(CC1CC1)c1nc(C)nc2c(-c3ccccc3)cc(C)cc12,14.3
11,CCOc1ccc(-c2nonc2NC(=O)c2ccco2)cc1OCC,-0
12,C=CCn1ccc2c3c(N)nc(N)nc3ccc21,6.4
13,O=C(COc1ccc(F)cc1)NC1CCN(c2ccnc3cc(Cl)ccc23)C1 (configuration not stated),3.13
14,Cc1cccc2nc(-c3ccc(-c4cccc(CN5CCN(c6ccncc6)CC5)c4)cc3)[nH]c12,10.7
15,CCc1nc2nc(C)cc(Nc3cc(C)cc(C)c3)n2n1,1.02
16,CCOc1cc(C=NNc2nc(C)cc(-n3nc(C)cc3C)n2)ccc1O,5.67
17,O=C(NC(=O)c1ccccc1)NC1CCN(c2ccnc3cc(Cl)ccc23)C1 (configuration not stated),6.15
18,COc1cc(SC)ccc1C(=O)N1CC(C)CC(C)C1 (configuration not stated),0.71
19,Cc1[nH]c(C)c(-c2ccc(Oc3ccc(F)cc3)cc2)c(=O)c1Cl,6.25
20,O=C(Cc1ccc(NC(=O)c2ccc(O)c(-c3cccc([N+](=O)[O-])c3)c2)cc1)NCCN1CCCCC1,1.4
21,COc1cc(OC)cc(-c2nn(-c3ccc([N+](=O)[O-])cc3C#N)c(=S)n2CC2CCCO2)c1 (configuration not stated),2.08
22,COc1ccc2nccc([C@@H](O)CN3CCC(NC(=O)Cc4ccc(Br)c5ccccc45)CC3)c2c1,-0
23,COCCNC(=O)c1ccc(OC2CCN(Cc3ccc(F)c(F)c3)CC2)c(Cl)c1,-0

row,SMILES,IFI [%]
1,CCCCc1cc(NCc2ccncc2)nc(Nc2ccccc2)n1,1.45
2,CCCCc1cc(NCc2ccncc2)nc(Nc2ccc(C)cc2)n1,5.8
3,CCN(CC)CCN(Cc1ccc(-c2ccc(C(F)(F)F)cc2)cc1)C(=O)Cn1c(CCc2ccc(F)cc2)nc(=O)c2sccc21,10.6
4,CCOC(=O)c1ccc(NC(=O)Nc2cccc(-c3ccc(-c4nc5cc(F)ccc5[nH]4)cc3)c2)cc1,-0
5,COc1ccc2nccc(N/N=C/c3ccccc3[N+](=O)[O-])c2c1,5.71
6,CCCC/C=C(\Cl)c1ccc(O)c2c1C[C@H]1C[C@H]3[C@H](N(C)C)C(O)=C(C(N)=O)C(=O)[C@@]3(O)C(O)=C1C2=O,6.82
7,Cc1cccc2nc(-c3cccc(-c4ccc(CNCc5cccc(N)c5)cc4)c3)[nH]c12,7.62
8,CCN(CC)CCN(Cc1ccc(-c2ccc(C(F)(F)F)cc2)cc1)C(=O)Cn1c(/C=C/c2ccco2)nc(=O)c2ccccc21,5.52
9,COc1cc(F)c2ncc(F)c(CCN3C[C@H](CNCc4ccc5c(n4)NC(=O)CS5)[C@H](O)C3)c2c1,0.97
10,CN1CCC(NCc2ccc(-c3ccc(Cl)cc3)cc2)CC1,7.8
11,CCc1ccc2nc(-c3ccc(F)cc3)nc(SCC(=O)Nc3sc(C)c(C)c3C#N)c2c1,-0
12,N#Cc1c(N2CCCCCC2)nc(N)c2c(N)nc3c(c12)CC(=O)N3c1ccc(F)cc1,2.86
13,c1ccc2c(NCCCCCCNc3ccnc4ccccc34)ccnc2c1,4.55
14,CN1CCCC(CN2CCN(Cc3ccc(-c4ccc(-c5nc6ccccc6[nH]5)cc4)cc3)CC2)C1 (configuration not stated),7.04
15,COc1ccc(C(=O)Nc2ccc(Cl)cc2C(=O)Nc2ccncc2)cc1,1.35
16,O=C(Nc1ccc(-c2cccc(-c3nc4cc(C(F)(F)F)ccc4[nH]3)c2)cc1)Nc1ccc(Cl)c(Cl)c1,7
17,Nc1nc(N)c2c(ccc3c2ccn3Cc2ccccc2)n1,6.29
18,CC1(C)NC(N)=NC(=N)N1OCCCCOc1ccccc1,2.17
19,Nc1nc(N)c2c(ccc3c2ccn3Cc2ccc3c(c2)OCO3)n1,6.67
20,CN1CCN(CCCN(Cc2cccc(-c3ccc(CNC4CCCC4)cc3)c2)C(=O)CCC2CCCC2)CC1,7.91
21,Cc1nc2nc(N)nc(N)c2c(C)c1Cc1ccc(N)cc1,8.59
22,CC[C@H](C)CNCc1ccc(OCc2cccc(COc3ccc(CNC[C@@H](C)CC)cc3I)c2)c(I)c1,15.3
23,O=C(/C=C/c1ccc(Cl)c(Cl)c1)NCCCCCN1CCC(NC(=O)Nc2cccc(F)c2)CC1,4.7

row,SMILES,IFI [%]
1,Cc1ccc(Oc2ncccc2C(=O)Nc2cccc3cccnc23)c(C)c1,2.88
2,Cc1ccc(CNC(=O)[C@H](Cc2ccccc2)Nc2cc(C)nc(NCc3ccccc3C)n2)cc1,4.88
3,COc1ccc(C(=O)O)cc1OCc1ccccc1,0
4,CC(C)CNCc1ccc(-c2ccc(CN(CCCN3CCN(C)CC3)C(=O)/C=C/c3ccccc3)cc2)cc1,6.67
5,CC(C)N1CCN(C(=O)c2ccc(CNCCCN3CCN(c4ccccc4C(F)(F)F)CC3)s2)CC1,8.54
6,O=C(NC1CC1)c1ccc(Cn2c(SCc3cccc([N+](=O)[O-])c3)nc3ccccc3c2=O)cc1,0.71
7,c1ccc(CCNCc2cccc(-c3ccccc3CNCc3ccc4c(c3)OCO4)c2)nc1,5.44
8,Oc1ccc(-c2nc3c4cc(I)ccc4c4ccc(I)cc4c3[nH]2)cc1,1.44
9,CC(C)c1ccc(CN2CCCCC(NC(=O)c3cc(-c4cccc(F)c4)cs3)C2)cc1 (configuration not stated),1.82
10,COc1c(Br)cc(Br)cc1C(C)=O,-0
11,CC(C)c1ccc(NC(=O)NC2CCN(CCCCCNC(=O)/C=C/c3ccc(Cl)c(Cl)c3)CC2)cc1,5.67
12,N=C(N)Nc1ccc(OCCCCCOc2ccc(NC(=N)N)cc2Br)c(Br)c1,5.88
13,CC(C)c1ccc(CN2CCC(NC(=O)c3ccc(-c4cccc(Cl)c4)s3)CC2)cc1,12.1
14,CCCCCC(C)C(C)c1cc(O)c2c(c1)OC(C)(C)CC2(O)c1ccnn1C (configuration not stated),0.72
15,CN1CCN(c2cc(NC(=O)c3ccc(-c4ccc(Cl)cc4)cc3)ccc2Cl)CC1,5.66
16,CCCCc1cc(NCc2ccncc2)nc(Nc2cccc(OC)c2)n1,5.8
17,CNC(=O)c1ccccc1Nc1cc(Nc2cc(OC)ccn2)ncc1Cl,-0
18,O=C1COc2ccccc2N1C/C=C(\CN1CCC(c2ccccc2)CC1)c1cc(Cl)cc(Cl)c1,1.57
19,Cc1cnc(C(=O)Nc2cccc(-c3cccc(-c4nc5cc(F)ccc5[nH]4)c3)c2)cn1,0.91
20,O=C(NCC1CCC(CNCCc2ccccc2)CC1)Nc1ccc(Cl)c(Cl)c1 (configuration not stated),0.72
21,CN1CCN(Cc2nc(-c3ccc4c(Nc5ccc(F)c(O)c5)ccnc4c3)cs2)CC1,4.38
22,CCc1c(CCNCCCCCNCCc2ccc(OC)c(OC)c2CC)ccc(OC)c1OC,6.38
23,COc1ccc(CC(=O)NC(CCCN2CCC(c3ccccc3)CC2)c2ccc(Cl)c(Cl)c2)cc1OC (configuration not stated),9.4
